Assay results: PubChem BioAssay AID488969 (Vanderbilt High Throughput Screening Facility, 2010)
In all, about 110,000 compounds were measured (“z-score”: median about -0.1, highest 2% from about 2 on). The list shows a part of the results.

Target: Metabotropic glutamate receptor 8 (Rattus norvegicus) (UniProt P70579)
Test: rat mGluR8 modulators via GIRK flux, primary screen, cell-based, thallium flux, HTS (AID 488969)
Conditions: HEK293 rat mGluR8, GIRK (G protein-gated inwardly rectifying potassium channel) thallium flux, FluoZin2; at 10 µM; stronger effect = higher value; submaximal glutamate (EC20) added with thallium

Sequence of UniProt P70579 (P70579 whole entry, looked up): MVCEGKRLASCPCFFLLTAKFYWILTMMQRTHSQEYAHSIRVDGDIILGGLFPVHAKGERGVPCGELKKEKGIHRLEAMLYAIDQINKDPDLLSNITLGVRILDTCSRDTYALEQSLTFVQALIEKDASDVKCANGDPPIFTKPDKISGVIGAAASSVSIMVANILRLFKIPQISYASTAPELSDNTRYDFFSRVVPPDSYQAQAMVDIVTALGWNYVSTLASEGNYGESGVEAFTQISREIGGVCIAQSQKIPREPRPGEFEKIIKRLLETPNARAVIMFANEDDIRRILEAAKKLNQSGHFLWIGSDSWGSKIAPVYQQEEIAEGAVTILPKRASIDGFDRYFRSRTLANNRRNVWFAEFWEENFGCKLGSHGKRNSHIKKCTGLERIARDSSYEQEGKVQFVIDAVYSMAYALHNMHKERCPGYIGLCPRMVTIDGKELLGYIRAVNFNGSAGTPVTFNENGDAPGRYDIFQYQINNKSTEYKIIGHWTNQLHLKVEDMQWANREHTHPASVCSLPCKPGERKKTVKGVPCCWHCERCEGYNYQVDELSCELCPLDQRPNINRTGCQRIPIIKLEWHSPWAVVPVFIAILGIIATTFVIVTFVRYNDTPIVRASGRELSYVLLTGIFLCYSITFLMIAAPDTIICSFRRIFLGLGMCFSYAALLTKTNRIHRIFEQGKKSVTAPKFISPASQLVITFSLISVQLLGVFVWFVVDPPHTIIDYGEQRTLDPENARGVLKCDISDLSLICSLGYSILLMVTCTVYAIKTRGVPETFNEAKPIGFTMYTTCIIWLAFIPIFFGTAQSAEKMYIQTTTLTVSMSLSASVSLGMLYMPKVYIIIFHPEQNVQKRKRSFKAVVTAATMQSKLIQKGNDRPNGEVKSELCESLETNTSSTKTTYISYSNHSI

Structure (SMILES) | z-score
Cc1ccc(-n2c(C)cc(/C=N/NC(=O)c3ccncc3)c2C)c(C)c1 | -0.298
COc1ccc(CCN(Cc2cc3cccc(C)c3[nH]c2=O)C(=O)NC2CCCCC2)cc1OC | -0.325
CCCCn1cnc2c1c(=O)n(C)c(=O)n2C | -0.0999
CCc1nnc(N2C(=O)c3ccc(Oc4ccc([N+](=O)[O-])cc4)cc3C2=O)s1 | 0.0564
O=C(CN1CCOCC1)Nc1ccccc1C(=O)O | -0.257
COc1ccc(S(=O)(=O)NCCC(C)C)cc1OC | -0.892
C=CCn1c(SCC(=O)NCc2ccc3c(c2)OCO3)nc2scc(-c3ccc(F)cc3)c2c1=O | -0.0818
OC(CNC1CCCCC1)COCCOc1ccc(Br)cc1 (stereo not given) | 0.263
COC(=O)c1cc(COC(=O)c2ccc3ccccc3n2)oc1C | -0.698
CCOC(=O)c1c(C)c(C(=O)NCc2cccs2)c(C)n1CC | -0.679
CCC(C)NC(=O)c1ccc([N+](=O)[O-])c(Cl)c1 (stereo not given) | -0.0959
O=C(O)c1cnc2ccccc2n1 | 0.243
N#Cc1ccc(OCC(=O)OCC(=O)Nc2cc(C(F)(F)F)ccc2N2CCOCC2)cc1 | -0.0127
Cc1cc(C(F)(F)F)n2ncc(C(=O)O)c2n1 | -0.514
O=C(/C=C\Nc1cccc(F)c1)c1cccs1 | 0.253
COc1ccccc1-c1c(C(F)(F)F)oc2cc(OCC(=O)Nc3ccccc3C(F)(F)F)ccc2c1=O | -0.175
CCOC(=O)c1c(N)nn(C(=O)C(C)(C)C)c1-c1ccccc1 | 0.205
O=C(NN1C(=O)C2C3c4ccccc4C(c4ccccc43)C2C1=O)c1ccccc1 (stereo not given) | 0.897
CC(=O)N(NC(=O)c1ccccc1Cl)C1CC(=O)N(c2ccc(C)cc2)C1=O (stereo not given) | -0.133
CCCOC(=O)/C(C(N)=NCc1ccccc1)=C(\O)OCCC | -0.245
CS(=O)(=O)N1CC(C(=O)NC2CC2)Oc2ccc(Cl)cc21 (stereo not given) | -0.141
Cc1ccc(-c2nnc(Nc3ccc4c(c3)nc(C)n4C)c3ccccc23)cc1 | -0.181

Structure (SMILES) | z-score
O=C(NCC1COc2ccccc2O1)C1CCCN(S(=O)(=O)c2cccc3cccnc23)C1 (stereo not given) | 0.963
COc1ccc(S(=O)(=O)N(C)c2ccc(C(=O)N3CCC(C(N)=O)CC3)cc2)cc1 | 0.0603
COc1ccccc1OCC(=O)OCn1c(SC)nnc(C)c1=O | -0.13
COc1ccc(C(=O)Nc2oc(-c3ccccc3)c(-c3ccccc3)c2C#N)cc1OC | 0.159
O=C(NCc1ccco1)C(c1ccc(F)cc1)N(CC1CCCO1)C(=O)Cn1nnc2ccccc21 (stereo not given) | -0.299
CN(CC(=O)NCCN1CCN(Cc2ccccc2)CC1)S(=O)(=O)c1cccc2nsnc12 | -0.0478
COC(=O)c1ccc(CSc2nnc(CNC(=O)c3ccccc3F)o2)o1 | -0.0532
CCC(C)Sc1nc2ccccc2c(=O)[nH]1 (stereo not given) | 0.337
Cc1ccc(C(=O)CSc2nc3ccccc3c(=O)[nH]2)cc1 | -0.343
Cn1cc([N+](=O)[O-])c(C(=O)Nc2ccc3c(c2)OCCO3)n1 | 0.661
CCC(C)NC(=O)CN(c1ccc2c(c1)OCO2)S(=O)(=O)c1c(C)n[nH]c1C (stereo not given) | 0.0816
Cc1ccc2[nH]c(-c3ccccc3)c(CN3CCN(C)CC3)c(=O)c2c1 | -0.0794
CC(C)C(NC(=O)CN1C(=O)c2ccccc2S1(=O)=O)C(C)C | -0.268
COC(=O)C1=C(C(=O)c2ccccc2)C(c2ccc(OC)c(OC)c2)Nc2nnnn21 (stereo not given) | 0.0695
Cc1sc2nc(C)n(/N=C/c3ccc(O)cc3)c(=O)c2c1C | -0.305
Cc1ccc2[nH]cc(CCNC(=O)Nc3ccccc3)c2c1 | 1.23
CCOC(=O)C1(c2ccccc2)NC(c2ccc(N(C)C)cc2)C2C(=O)N(C)C(=O)C21 (stereo not given) | 0.882
CC(=O)c1cnn(-c2nc3c(C)cccc3s2)c1C | -0.111
CC1=C(C(=O)Nc2cccc(C)c2C)C(c2cccs2)NC(=S)N1 (stereo not given) | -0.343
Cc1cc(=O)oc(C)c1C(=O)N1CCN(c2ccc(F)cc2)CC1 | 0.465
COCCNC(=O)c1cn(C)c(=O)c2cc(OC)c(OC)cc12 | 0.137
COCCNC(=O)CSc1nc(-c2ccccc2)c(-c2ccccc2)o1 | -0.677

Structure (SMILES) | z-score
CNc1nc2[nH]c(=O)c3c(c2s1)OC(N)=C(C#N)C3c1cccc(F)c1 (stereo not given) | 0.0854
O=C1N=C(N2CCCC2)S/C1=C\c1ccccc1 | -0.162
CCC(CO)NCc1ccc(-c2ccccc2)cc1 (stereo not given) | 0.337
CCOc1ccc(C(=O)NC2CCN(C(=O)Nc3ccccc3OC)CC2)cc1 | -0.923
COc1ccc(N2C(=O)CC(N3CCC(O)(c4ccc(Br)cc4)CC3)C2=O)cc1 (stereo not given) | 0.215
CCCN1CCN(C(=S)Nc2ccc([N+](=O)[O-])cc2)CC1 | -0.205
CCCCCC(=O)N/N=C(\C)c1ccc(NC(=O)c2ccco2)cc1 | -0.112
Clc1ccccc1Sc1cnc2ccccc2n1 | 0.551
CCc1nnc(NC(=O)CN2CCN(c3cccc(OC)c3)CC2)s1 | 0.136
Cc1cnc(NC(=O)CSc2ccc(Cl)cc2)s1 | 1.89
CCC(=O)Nc1cccc(NC(=O)c2cccc([N+](=O)[O-])c2)c1 | -0.78
CC1CCN(CCCNC(=O)c2ccc(CS(=O)(=O)Cc3ccccc3F)o2)CC1 | -0.239
Cc1ccc(-c2nnc(SCC(=O)N3CCCC3)o2)cc1C | 0.166
Cc1ccc(NC(=O)N2CCN(c3ccccn3)CC2)cc1 | -0.533
CC(C)(C)c1ccc(C(=O)c2c[nH]c(C(=O)NCc3cccs3)c2)cc1 | -0.0379
COc1ccc(C(=O)Nn2c(SCc3cccc([N+](=O)[O-])c3)nc3ccccc3c2=O)cc1 | -0.0326
CCCC(=O)Nc1ccc2c(c1)nc1n2CCSC1 | 0.0727
Cc1c(Cl)cccc1Nc1nc(N)nc(CN2CCc3ccccc3C2)n1 | 0.571
CC1Cc2ccccc2N1C(=S)Nc1ccc(S(N)(=O)=O)cc1 (stereo not given) | 0.0257
O=C(O)c1c[nH]c2c(C(F)(F)F)cccc2c1=O | -0.119
CCOc1cc(/C=N\NC(=O)CN2CCOCC2)ccc1OCc1ccc(F)cc1 | -0.31
Cc1ccc(S(=O)(=O)N2CCC(C(=O)Nc3nnc(-c4ccc(F)cc4)s3)CC2)cc1 | -0.000295

Structure (SMILES) | z-score
Cc1cccc(N2CCN(C(=S)c3ccc([N+](=O)[O-])cc3)CC2)c1 | -0.193
CC(C)(C)C(=O)CC1(O)C(=O)N(Cc2ccccc2)c2ccccc21 (stereo not given) | -0.179
O=C(c1oc(=O)c2ccccc2c1-c1ccccc1)N1CCN(C2CCCCC2)CC1 | -0.07
COC(=O)/C(C(C)=O)=C(\C=C\N(C)C)N(C)C | 0.0491
CCN1C(=O)N(c2cccc3ccccc23)C(C)=CC1(C)C | 0.0711
COC(=O)CN1C(=O)S/C(=C/c2ccc(N3CCCCC3)o2)C1=O | -0.428
COc1ccc(CC(=O)N2CCN(C(=O)c3ccco3)CC2)cc1 | 0.485
Cc1nc(OCc2ccccc2)c2ccccc2n1 | 0.297
CC(c1ccco1)N(C(=O)c1ccc(C#N)cc1)c1ccccn1 (stereo not given) | -0.175
COc1ccc(/C=C/c2nc3ccccc3n2Cc2ccccc2OC)cc1 | -1.02
CC(=O)NCCn1c(SCc2cc(F)ccc2F)nc2ccccc2c1=O | 0.298
CSCCC(NC(=O)c1ccccc1)C(=O)OCC(=O)Nc1ccc(C)c(Cl)c1 (stereo not given) | -0.0955
Cc1ccccc1CS(=O)(=O)CCC(=O)NCc1ccccn1 | -0.0271
COc1ccc(-c2nnc3n2C(C)(C)Cc2cc(OC)c(OC)cc2-3)cc1 | 0.232
COc1ccc(OC)c(C2C=C(C34CC5CC(CC(C5)C3)C4)NC(=S)N2)c1 (stereo not given) | 0.0259
CC1(C)CC(=O)C(C=NCc2ccc3c(c2)OCO3)=C(O)C1 | 1.27
CN1CCN(C(=S)Nc2cccc(C(F)(F)F)c2)CC1 | -0.213
CCSc1nnc(CNC(=O)C23CC4CC(CC(C4)C2)C3)n1C1CCCCC1 | 0.209
C=C(C)COc1ccc(-c2[nH]ncc2Oc2ccccc2OC)c(O)c1 | -1.1
CCCNC(=O)N[C@@H](CCSC)C(=O)OC | -0.469
O=C(Nc1ccc(S(=O)(=O)NCCc2ccccc2)cc1)c1ccco1 | 0.183
Cc1ccc(C(=O)CC2(O)C(=O)N(Cc3ccccc3Cl)c3ccccc32)o1 (stereo not given) | -0.825

Structure (SMILES) | z-score
CC1(C)Oc2ccc3ccc(=O)oc3c2/C(=C/NC2CCCCC2)C1=O | -0.108
O=C(N/N=C/c1ccccc1OCc1ccccc1)c1cccnc1 | -0.175
CCOC(=O)c1ccc2c(c1)n(CC)c(/C=C/N(C)c1ccccc1)[n+]2CC | -0.0543
Cc1ccc(S(=O)(=O)NNC(=O)c2sc(=S)n(C)c2C)cc1 | -0.138
O=[N+]([O-])c1cccc(S(=O)(=O)N2CCCCCC2)c1 | -0.293
COc1cc(C(=S)N2CCOCC2)cc(OC)c1OC(=O)Cc1ccc(F)cc1 | 0.0628
O=C(CSc1ccc(-c2ccco2)nn1)NCc1ccc(Cl)cc1 | -0.312
Cn1nnc(NC(=O)c2ccco2)n1 | 0.813
CCSc1nnc([C@H](Cc2ccccc2)NC(=O)OC(C)(C)C)o1 | 1.57
Cc1nnc(SCC(=O)N2CCCCC2)s1 | 0.676
Cc1ccc(S(=O)(=O)CC(=O)NC(C)(C)C)cc1 | -0.0372
COc1ccc(NC(=O)CNS(=O)(=O)c2ccc(Cl)cc2)cc1 | 0.142
C=CCn1c(=O)/c(=C2/SC(C)=C(C)N2CC)s/c1=C1/C(=O)N(CC)C(=S)N1c1ccccc1 | -0.0202
N#CC1=C(N)OC2=C(CCC/C2=C/c2ccoc2)C1c1ccoc1 (stereo not given) | -0.174
O=C(Nc1ccccc1Cl)c1cc(S(=O)(=O)N2CCCC(C(=O)O)C2)ccc1F (stereo not given) | -0.787
CCSCC1COC(c2cccn2Cc2ccc(C)cc2)=N1 (stereo not given) | 0.0738
CCCCn1cnc2c1c(=O)[nH]c(=O)n2CCCC | -0.367
C=CCn1c(SCC(=O)Nc2cc(C)ccc2OC)nnc1-c1ccco1 | -0.945
CCOC(=O)c1c(NC(=O)Nc2ccccc2)sc(C)c1C | 0.488
COc1ccc(C(=O)Nc2ccc3c(c2)nc(CN2CCN(C(C)=O)CC2)n3C)cc1 | -0.602
O=c1c2c(nc3c(-c4cccc5ccccc45)c[nH]n13)CCC2 | -0.52
COc1ccc(N(CC(=O)N2c3ccccc3CC2C)S(=O)(=O)c2c(C)noc2C)cc1 (stereo not given) | -0.103
